Screen size: about 310,000 compounds; about 18,000 (5.8%) were called active. Inconclusive results, whose numbers are uncertain, are shown with a selection of clear calls. Calls come from the whole dose curve; as a rule, active = well fitted inhibition curve with a large enough effect; inconclusive = small, poorly fitted or top-dose-only effect, or another doubt; inactive = no such curve, though single readings can be large or run the other way. No potency is given beside an inconclusive call; the fits are too rough.
Test: Primary qHTS for delayed death inhibitors of the malarial parasite plastid, 48 hour incubation
Conditions: P. falciparum luciferase growth in erythrocytes; series mostly up to 28.7 µM; activity change, negative = inhibition: at the top concentration
Procedure, shortened: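 Luciferase-expressing P. falciparum in infected erythrocytes (2% hematocrit, 0.1% parasitemia final) in RPMI 1640/0.5% Albumax were exposed to compound for 48 hours at 37 C, 5% CO2; growth read as luminescence.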
% is set by controls: 0 for no effect and ±100 for the full control effect; potency is the fitted concentration of half-maximal effect; tags give direction and shape of the fitted curve.

Structure (SMILES) | Potency | activity change, negative = inhibition
CCOC(=O)N1CCN(C(=O)c2ccc(-n3c(C)ccc3C)cc2)CC1 | inconclusive [inhibitor, single point] | 
COCCn1c(C)cc(C(=O)CSc2nnc(-c3cccnc3)n2-c2ccccc2F)c1C | active: 10.4 µM | 
COC(=O)/C=C/C(=O)NCc1ccco1 |  | inactive: -12.4%
COc1ccc(CCNc2ccc(C(CC(N)=O)NC(=O)Cc3cccc4ccccc34)cc2[N+](=O)[O-])cc1 (stereo unspecified) | inconclusive [inhibitor, partial curve] | 
CCCNS(=O)(=O)c1ccc(OCC(=O)N2CCN(Cc3ccc4c(c3)OCO4)CC2)cc1 | inconclusive [inhibitor, partial curve] | 
Cc1cccc[n+]1CC(=O)/C=C1\N(C)c2ccccc2C1(C)C | active: 2.94 µM | 
O=C1CN(C(=O)c2ccccc2)C(c2ccccc2)c2cc(Cl)ccc2N1 (stereo unspecified) | inconclusive [inhibitor, partial curve] | 
COc1ccc(NC(=O)CCOc2ccccc2)cc1 |  | inactive: 155%
C[C@@H]1CCC[C@]2(O[C@H](CCO)C[C@H](O)[C@H]2O)O1 |  | inactive: 0%
Cc1cc(C)cc(C(=O)NC(CC(N)=O)c2ccc(NC3CCCC3)c([N+](=O)[O-])c2)c1 (stereo unspecified) |  | inactive: 16.2%
COc1cc(OC)cc(C(=O)NNC(=O)c2ccc(S(=O)(=O)N3CC(C)OC(C)C3)cc2)c1 (stereo unspecified) |  | inactive: 8.98%
CC(CCc1ccccc1)N(C)CC(O)c1cccc([N+](=O)[O-])c1 (stereo unspecified) | inconclusive [inhibitor, full curve] | 
CSc1ccccc1NC(=O)CN(C)C(=O)C1CC(=O)N(C(C)c2ccccc2)C1 (stereo unspecified) | inconclusive [inhibitor, single point] | 
CC1(C)CCC(NC(=O)[C@@H](N)CCC(=O)O)CC1 |  | inactive: 3.22%
CC1CC(C)CN(C(=O)c2cc3cc(Br)cc(Br)c3o2)C1 (stereo unspecified) |  | inactive: -4.86%
COc1ccc2c(c1)OC(c1ccccc1)(C(F)(F)F)NC2=O (stereo unspecified) | active: 2.94 µM | 
CC(C)(CNC(=O)Cc1ccc(NS(=O)(=O)c2cccc(C(F)(F)F)c2)cc1)N1CCOCC1 | inconclusive [inhibitor, partial curve] | 
CC(C)(C)NS(=O)(=O)c1ccc(CCC(=O)Nc2ccc3c(c2)OCCO3)cc1 | inconclusive [inhibitor, partial curve, poor fit] | 
COc1ccccc1CCNC(=O)c1ccc(OC)c(OC2CCN(C(C)C)CC2)c1 | inconclusive [inhibitor, full curve] | 
CC(=O)c1cc(O)c2ccccc2c1O | inconclusive [inhibitor, partial curve] | 
CCOc1ccc(C2C3=C(CC(C)(C)CC3=O)N(CC(=O)O)C3=C2C(=O)CC(C)(C)C3)cc1OCC | inconclusive [inhibitor, partial curve, poor fit] | 
COc1cccc(CNC(=O)CCCNC(=O)c2ccc(Cl)cc2)c1 | inconclusive [inhibitor, partial curve, poor fit] | 
O=C(COc1ccc(S(=O)(=O)N2CCCC2)cc1Cl)NC1CCCC1 | active: 9.28 µM | 
COc1ccc(S(=O)(=O)N2CCc3ccccc32)cc1C(=O)NC1(C)CCS(=O)(=O)C1 (stereo unspecified) | inconclusive [inhibitor, partial curve, poor fit] | 

Structure (SMILES) | Potency | activity change, negative = inhibition
O=C(Nc1ccc(F)cc1)c1sccc1SCc1cccc(C(F)(F)F)c1 | active: 9.28 µM | 
Cc1onc(-c2ccccc2Cl)c1C(=O)Nc1ccc(-c2nnc3n2CCCCC3)cc1 | active: 9.28 µM | 
Cc1sc(NC(=O)CSc2nnc(-c3ccc(F)cc3)o2)c(C#N)c1C |  | inactive: -13.2%
COc1ccc(S(=O)(=O)NC(C)C)cc1C(=O)N1CCOCC1 |  | inactive: 6.09%
O=C(NNC(=O)c1ncc(Cl)c(Cl)c1Cl)c1ccc(F)cc1 | inconclusive [inhibitor, partial curve, poor fit] | 
N#C/C(=C\c1c(N2CCN(Cc3ccccc3)CC2)nc2ccccn2c1=O)S(=O)(=O)c1ccccc1 | inconclusive [inhibitor, single point] | 
COc1ccccc1C(=O)NCCC(=O)N1CCN(c2ccc(C(F)(F)F)cn2)CC1 | inconclusive [inhibitor, partial curve] | 
Cc1noc(C)c1C(=O)Nc1ccc(C#N)cc1 |  | inactive: -18.4%
COc1ccc(N2CCN(C(=O)CN(c3cccc(OC)c3)S(=O)(=O)c3ccccc3)CC2)cc1 | active: 13.1 µM | 
COc1ccc(C(=O)OCC(=O)NC(C)CCc2ccccc2)cc1 (stereo unspecified) |  | inactive: 4.66%
Cc1cc2cc(CCNC(=O)C(=O)c3c[nH]c4ccccc34)c(=O)[nH]c2cc1C | inconclusive [inhibitor, single point] | 
NS(=O)(=O)c1ccc(NC(=O)CSc2n[nH]c(=O)n2C2CC2)cc1 |  | inactive: -3.26%
CCc1cccc(C)c1NC(=O)C1CCCN1C(=O)NCc1ccccc1 (stereo unspecified) |  | inactive: -14.7%
C=CCN(CC#CCOc1ccccc1OC)CC=C |  | inactive: 25.6% [at 5.75 µM]
Cc1cc(Br)c(S(=O)(=O)NCc2cccnc2)cc1C |  | inactive: -8.22%
CCNc1nc(NC(C)CC)nc(ON=C(C)C)n1 (stereo unspecified) | active: 1.47 µM | 
S=C(NCCc1cccc(Cl)c1)NCc1ccccc1 |  | inactive: 3.78%
Cc1ccc(NC(=O)CC2C(=O)N(Cc3ccccc3)C(=S)N2NC(=O)c2ccccc2)c(C)c1 (stereo unspecified) | inconclusive [inhibitor, partial curve, poor fit] | 
COc1cc(C)c(C(C)C)cc1S(=O)(=O)NCCCn1ccnc1 | inconclusive [inhibitor, partial curve] | 
CNC(=S)N1CCc2cc(OC)c(OC)cc2C1COc1ccc(F)cc1 (stereo unspecified) | inconclusive [inhibitor, single point] | 
COc1ccccc1NS(=O)(=O)c1cccc(C(=O)NCC(c2ccc(F)cc2)N2CCOCC2)c1 (stereo unspecified) | inconclusive [inhibitor, partial curve] | 
O=C(NCCc1cccnc1)C1CCC(=O)N(Cc2ccc(Cl)cc2)C1 (stereo unspecified) | inconclusive [inhibitor, partial curve] | 
CSC1=Nc2sc3c(c2C2=NCCN12)CCCC3 | inconclusive [inhibitor, partial curve, poor fit] | 
COc1ccc2c(CCNC(N)=S)c[nH]c2c1 |  | inactive: 129%

Structure (SMILES) | Potency | activity change, negative = inhibition
O=c1[nH]c(SCCOc2ccccc2)nc2ccccc12 | inconclusive [inhibitor, partial curve, poor fit] | 
CCCNS(=O)(=O)c1ccc(CCC(=O)Nc2cc(Cl)ccc2Oc2ccccc2)cc1 | active: 13.1 µM | 
OC1CCCN(Cc2nc(Cc3ccccc3Cl)no2)C1 (stereo unspecified) |  | inactive: 40.4%
Cc1cc(C)c(C#N)c(SCC(O)CS(=O)(=O)Cc2ccccc2)n1 (stereo unspecified) | inconclusive [inhibitor, single point] | 
O=C(CSc1n[nH]c(=O)n1C1CC1)Nc1cc(Cl)ccc1Oc1ccccc1 | inconclusive [inhibitor, single point] | 
C=CCn1c(CNS(=O)(=O)c2ccc(Br)cc2)n[nH]c1=S |  | inactive: 50.3%
COc1ccc2[nH]c(=O)c(CN(Cc3cccnc3)S(=O)(=O)c3ccccc3F)cc2c1 | inconclusive [inhibitor, single point] | 
O=C1CSC(c2cccc([N+](=O)[O-])c2)N1c1ccccc1F (stereo unspecified) | inconclusive [inhibitor, single point] | 
CC1(C)C2CCC1(C)C(Nc1ccccc1)C2 (stereo unspecified) |  | inactive: -15%
CCN(CC)CCN1C(=O)/C(=C\c2ccc(Cl)c([N+](=O)[O-])c2)SC1=Nc1ccc(OC)cc1 | inconclusive [inhibitor, partial curve] | 
CCn1c(=O)oc2cc(NC(=O)CCl)ccc21 | inconclusive [inhibitor, full curve] | 
CCC(C)CCN1C(N(C)C)=NC[C@@H]1Cc1ccccc1 (stereo partly specified) | inconclusive [inhibitor, single point] | 
O=C(NC(CC(=O)N1CCCC(C(F)(F)F)C1)c1ccccc1)c1ccccc1Cl (stereo unspecified) |  | inactive: 15%
COc1ccc(CCNC(=O)CSc2nc3[nH]ncc3c(=O)n2-c2ccccc2Br)cc1OC | inconclusive [inhibitor, partial curve, poor fit] | 
CCOC(=O)c1c(C)n(C)c2ccc(OC)c(NC(=O)CCN3CCC(Cc4ccccc4)CC3)c12 | inconclusive [inhibitor, partial curve, poor fit] | 
Cc1ccc(-c2nn(-c3ccccc3)cc2C(=O)Nc2ccc(C)c(S(=O)(=O)N3CCOCC3)c2)cc1 | active: 10.4 µM | 
O=C1NC(=O)N(Cc2ccccc2)C(=O)/C1=C/C=C/c1ccco1 |  | inactive: 0%
COC(=O)c1ccc(CNC(=O)C2CCC(=O)N(CCCc3ccccc3)C2)cc1 (stereo unspecified) |  | inactive: 19.5%
O=C(COC(=O)CNC(=O)c1ccc([N+](=O)[O-])o1)Nc1ncc(Cl)cc1Cl | inconclusive [inhibitor, single point] | 
COc1ccc(/C=N/NC(=S)SC)cc1OC |  | inactive: -28.9%
CC(C)CCC(C)NC(=O)Cc1ccc(S(=O)(=O)N2CCOCC2)s1 (stereo unspecified) | inconclusive [inhibitor, partial curve, poor fit] | 
CCOC(=O)c1ccc2c(c1)n(CCCS(=O)(=O)[O-])c(/C=C/c1ccc(Cl)cc1)[n+]2CC | active: 9.28 µM | 
CCc1nnc(NS(=O)(=O)c2ccc(NC(=O)c3cc(Cl)ccc3Cl)cc2)s1 | inconclusive [inhibitor, partial curve, poor fit] | 

Source: PubChem BioAssay AID504832 (National Center for Advancing Translational Sciences (NCATS), 2011)
